PubChem BioAssay AID1468 (National Center for Advancing Translational Sciences (NCATS), 2008)
Screen size: about 280,000 compounds; about 1,100 (0.39%) were called active. Inconclusive results, whose numbers are uncertain, are shown with a selection of clear calls. The call rests on the fitted dose curve; in most records, active means well fitted inhibition curve with a large enough effect; inconclusive means small, poorly fitted or top-dose-only effect, or effect the other way; inactive means flat fitted curve, though single readings scatter. No potency is given beside an inconclusive call; the fits are too rough.
Further: nearly all actives have a fitted effect of over 55% in size.
On the % scale 0 is the no-effect control and ±100 the full control effect; potency means the concentration at half of the fitted maximal effect; tags describe the fitted curve by direction and shape.

These molecules were tested against Microtubule-associated protein tau (Homo sapiens) (UniProt P10636) (assay: qHTS for Inhibitors of Tau Fibril Formation, Fluorescence Polarization). Settings: K18 P301L tau heparin fibrillization, Alexa594 FP, 6 h; series mostly up to 57.7 µM; activity, negative = inhibition: at the top concentration.
UniProt P10636, sequence (P10636 whole entry, looked up): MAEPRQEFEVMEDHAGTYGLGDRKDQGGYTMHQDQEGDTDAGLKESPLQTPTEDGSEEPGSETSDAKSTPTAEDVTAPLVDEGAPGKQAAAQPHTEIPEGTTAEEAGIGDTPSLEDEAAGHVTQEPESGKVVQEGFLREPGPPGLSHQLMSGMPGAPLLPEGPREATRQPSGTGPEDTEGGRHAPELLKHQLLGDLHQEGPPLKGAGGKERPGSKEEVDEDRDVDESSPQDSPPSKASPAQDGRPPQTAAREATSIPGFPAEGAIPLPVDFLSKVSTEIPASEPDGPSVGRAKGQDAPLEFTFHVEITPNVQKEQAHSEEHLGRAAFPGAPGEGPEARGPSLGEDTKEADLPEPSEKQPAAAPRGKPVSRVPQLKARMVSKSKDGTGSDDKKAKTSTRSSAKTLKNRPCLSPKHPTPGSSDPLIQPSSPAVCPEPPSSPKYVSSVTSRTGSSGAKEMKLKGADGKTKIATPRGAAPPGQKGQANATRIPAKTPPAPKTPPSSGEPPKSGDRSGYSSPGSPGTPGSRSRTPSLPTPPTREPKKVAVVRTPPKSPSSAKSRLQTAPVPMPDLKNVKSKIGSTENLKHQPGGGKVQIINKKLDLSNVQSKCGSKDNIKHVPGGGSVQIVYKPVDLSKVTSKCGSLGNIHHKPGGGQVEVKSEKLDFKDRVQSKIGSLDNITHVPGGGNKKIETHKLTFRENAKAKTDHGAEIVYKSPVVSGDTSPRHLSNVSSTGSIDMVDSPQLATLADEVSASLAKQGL
How it was run: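 FP of Alexa 594-tau after heparin (20 uM) induction. Substrate: human K18 P301L, 15 uM unlabeled, 0.24 uM labeled. Buffer 100 mM sodium acetate pH 7. 6 hr, 37 C.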
With `N#Cc1c(C(F)(F)F)cc(-c2cccs2)nc1SCC(=O)Nc1cccc(Br)c1` the Potency was inconclusive [inhibitor, full curve, poor fit]. For `Cc1onc(-c2c(F)cccc2Cl)c1C(=O)OCC(=O)c1c[nH]c2ccccc12`, the Potency was active: 17.8 µM. In the case of `O=C(CCc1ccccc1)NC(NC(=S)Nc1ccc(Br)cc1)C(Cl)(Cl)Cl` (configuration not stated), the Potency was inconclusive [inhibitor, partial curve]. In the case of `Cc1ccc(/C=C/c2onc(C)c2S(=O)(=O)N2CCC(C(=O)Nc3cccc(C#N)c3)CC2)cc1`, the Potency was inconclusive [inhibitor, partial curve]. With `Cn1c(-c2sccc2OCc2ccccc2)n[nH]c1=S` the “activity, negative = inhibition” value was inactive: -7.85%. In the case of `Cc1ccnc(SCc2ccc([N+](=O)[O-])cc2)n1`, the “activity, negative = inhibition” value was inactive: 4.99%. For `CN=c1scc(-c2cc(OC)ccc2OC)n1/N=C/c1c(C)[nH]c2ccccc12`, the Potency was inconclusive [activator, full curve]. With `Cc1ccc(-c2c[nH]c(=S)n2-c2ccccc2F)cc1` the “activity, negative = inhibition” value was inactive: 1.61%. `CC1COc2ccccc2N1C(=O)c1ccc(Cl)nc1` (configuration not stated) was tested, and the Potency was inconclusive [inhibitor, single point]. In the case of `CN(c1ccccc1)S(=O)(=O)c1ccc(Cl)c(C(=O)Nc2ccc(-c3nc4ccccc4[nH]3)cc2)c1`, the Potency was inconclusive [inhibitor, single point]. For `O=C(CSc1nc2ccccc2[nH]1)Nc1ccc2c(c1)CCC2`, the Potency was inconclusive [inhibitor, partial curve]. With `O=C(O)/C=C/C(=O)NC1CCS(=O)(=O)C1` (configuration not stated) the “activity, negative = inhibition” value was inactive: -3.04%. `O=C(Nc1cc(Cl)ccc1Cl)N1CCCC1` was tested, and the Potency was inconclusive [inhibitor, single point]. For `Cc1cc(N(C)C)c(C#N)c(NCc2ccccc2)n1`, the Potency was inconclusive [inhibitor, single point]. `CCOc1ccccc1NC(=O)CSc1nc2cc(OC)c(OC)cc2c2nc(CCn3c(C)nc4ccccc43)nn12` was tested, and the Potency was inconclusive [activator, single point]. `COc1ccc(C(=O)Cn2c(=O)n3nc(CCn4nc(C)cc4C)nc3c3cc(OC)c(OC)cc32)cc1` was tested, and the Potency was inconclusive [inhibitor, single point]. `COc1cc(/C=N/NC(=O)c2ccc(CN3C(=O)c4cccc5cccc3c45)cc2)cc(OC)c1O` was tested, and the Potency was inconclusive [activator, partial curve]. `Cc1ccc(C)n1-n1c(C)nc2scc(-c3ccccc3)c2c1=O` was tested, and the Potency was inconclusive [inhibitor, full curve, poor fit]. In the case of `COc1ccc(CCNc2nc(-c3ccccc3OC)cc(C(F)(F)F)n2)cc1OC`, the Potency was inconclusive [inhibitor, single point]. With `Cc1cs/c(=N\N=C\c2ccc(O)cc2)n1Cc1ccco1` the Potency was inconclusive [activator, partial curve, poor fit]. With `Nc1c(S(=O)(=O)c2ccccc2)cnc2c(-c3ccc(F)cc3)cnn12` the Potency was inconclusive [inhibitor, partial curve]. For `Cc1cc(C)cc(-n2c(C)cc(/C=N/NC(=O)CN(c3c(C)cccc3C)S(C)(=O)=O)c2C)c1`, the “activity, negative = inhibition” value was inactive: -7.51%. In the case of `O=C(Nc1nnc(N2CCCC2)s1)Nc1cc(F)ccc1F`, the “activity, negative = inhibition” value was inactive: -7.36%. For `CC(=O)c1cc(Cc2csc(C(C)=O)c2)cs1`, the Potency was inconclusive [inhibitor, single point]. With `Cc1csc(Nc2ccccc2)n1` the “activity, negative = inhibition” value was inactive: 0.0087%. For `CCSc1nnc(-c2cc3c(s2)-c2ccccc2CC3)o1`, the Potency was inconclusive [inhibitor, single point]. In the case of `COc1ccc(CCNC(=O)Cc2cccs2)cc1`, the “activity, negative = inhibition” value was inactive: 0.506%. `CCCCOc1ccc(NC(=O)c2cc3c(n(-c4ccc(Cl)cc4)c2=O)CCCC3=O)cc1` was tested, and the Potency was inconclusive [inhibitor, single point]. `CCCC(=O)c1cc2c(cc1NC(=O)c1ccccc1F)OCCO2` was tested, and the Potency was inconclusive [inhibitor, partial curve]. `CC(C)Cn1nc(NC(=O)c2cccs2)c2cc3ccccc3nc21` was tested, and the Potency was inconclusive [inhibitor, single point]. With `COc1ccc(-n2ncc(Cl)c(Cl)c2=O)cc1` the “activity, negative = inhibition” value was inactive: -4.87%. For `CSc1ccccc1C(=O)Nc1ccccc1C(=O)N1CCCC1`, the “activity, negative = inhibition” value was inactive: 0.993%. With `Cc1cc(C)c(-c2csc(-c3cc4ccccc4oc3=O)n2)cc1C` the Potency was inconclusive [inhibitor, partial curve]. `Cn1nc(C(=O)OCC(=O)Nc2ccc3ccccc3c2)c2ccccc2c1=O` was tested, and the Potency was inconclusive [inhibitor, partial curve, poor fit]. With `COc1ccc(N2CCN(C(=O)C3CCC(Cn4c(=S)[nH]c5ccccc5c4=O)CC3)CC2)cc1` (configuration not stated) the Potency was inconclusive [activator, single point]. In the case of `Cc1cc(C(=O)Nc2cccc(C(F)(F)F)c2)c2c(C)nn(-c3cccc(F)c3)c2n1`, the Potency was inconclusive [inhibitor, partial curve]. In the case of `CCOC(=O)c1c(NC(=S)N2CCOCC2)sc2c1CCN(C(=O)OCC)C2`, the “activity, negative = inhibition” value was inactive: -2.11%. `Cc1cc(=O)[nH]c(N/N=C/CCc2ccccc2)n1` was tested, and the Potency was inconclusive [inhibitor, single point]. In the case of `N#CC1=C(N)n2c(s/c(=C\c3ccco3)c2=O)=C(C#N)C1c1ccco1` (configuration not stated), the Potency was inconclusive [inhibitor, single point]. With `COc1ccc(C(C(=O)Nc2ccc3c(c2)OCO3)N(C)C(=O)Cc2c[nH]c3ccccc23)cc1` (configuration not stated) the Potency was inconclusive [activator, partial curve]. With `Nc1c(S(=O)(=O)c2cccs2)c2nc3ccccc3nc2n1Cc1ccccc1` the Potency was inconclusive [inhibitor, partial curve]. For `Cn1c(=O)[nH]c2cc(Cl)cnc21`, the “activity, negative = inhibition” value was inactive: -2.07%. For `C=CCn1c(-c2cccn(Cc3ccc(Cl)cc3)c2=O)n[nH]c1=S`, the “activity, negative = inhibition” value was inactive: -4.18%. `CC(C)c1ccc(NC(=O)C(Cc2ccccc2)n2cccc2)cc1` (configuration not stated) was tested, and the Potency was inconclusive [inhibitor, partial curve, poor fit]. `CCn1cc(C(=O)NCc2ccc(Cl)cc2)c(=O)c2cc(S(=O)(=O)N3CCc4ccccc4C3)ccc21` was tested, and the Potency was inconclusive [inhibitor, partial curve]. For `O=C(CSc1ncnc2c(-c3ccc(Cl)cc3)nsc12)c1ccccc1`, the Potency was inconclusive [inhibitor, single point]. With `COc1cccc(NC(=O)c2oc3ccccc3c2NC(=O)c2ccc(OC(C)C)cc2)c1` the Potency was inconclusive [inhibitor, partial curve]. In the case of `CCc1ccc2c(Cl)c(C(=O)N/N=C/c3c[nH]c4ccccc34)sc2c1`, the Potency was inconclusive [activator, full curve, poor fit]. With `CN1C(=O)C2(c3ccccc31)C1CCCC=C1C(C#N)=C(N)C2(C#N)C#N` (configuration not stated) the Potency was inconclusive [inhibitor, partial curve]. `COc1cc(Cl)c(C)cc1NC(=O)CCn1cnc2onc(-c3ccc(F)cc3)c2c1=O` was tested, and the Potency was inconclusive [inhibitor, full curve, poor fit]. `O=C(NN=C1CCCC1)c1sc2ccccc2c1Cl` was tested, and the “activity, negative = inhibition” value was inactive: 10.2%. For `Cc1ccc(C(=O)CSc2nc(-c3ccccc3)nc3c2CCCC3)cc1C`, the Potency was inconclusive [inhibitor, single point]. For `N#C/C(=C\c1cn[nH]c1-c1ccc(Cl)cc1)C(=O)NCc1ccccc1`, the Potency was inconclusive [inhibitor, single point]. In the case of `CC1=C(C(=O)Nc2ccc(C)cc2C)C(c2cccs2)n2nc(SCc3ccc(Cl)cc3)nc2N1` (configuration not stated), the “activity, negative = inhibition” value was inactive: -4.52%. `Cc1cc(CCC(=O)O)c(C)cc1CCC(=O)O` was tested, and the “activity, negative = inhibition” value was inactive: 2.83%. In the case of `COc1cccc(-c2cc(C(F)(F)F)n3nc(C(=O)N4CCCCC4c4cccnc4)cc3n2)c1` (configuration not stated), the “activity, negative = inhibition” value was inactive: 10.9%. For `COc1cc(OC)c2c(-c3cccc(-c4ccc(O)cc4)c3)cc(=O)oc2c1`, the Potency was inconclusive [inhibitor, partial curve]. With `O=C(CCn1c(=O)sc2ccccc21)NCCC1=CCCCC1` the Potency was inconclusive [activator, single point]. With `C/C(N)=C(/C#N)C(=O)COC(=O)c1ccccc1Cc1ccccc1` the Potency was inconclusive [inhibitor, partial curve]. `O=C(Nc1nc2c(c(=O)[nH]1)CCCC2)C1CC1` was tested, and the Potency was inconclusive [inhibitor, single point]. In the case of `COc1ccc(C(=O)Nc2cccc(OC(=O)c3ccc(C)c(C)c3)c2)cc1`, the Potency was inconclusive [inhibitor, partial curve]. In the case of `O=C(NCc1ccccc1)c1ccc(Br)o1`, the “activity, negative = inhibition” value was inactive: 2.63%. `Cn1c2ccccc2c2cc(C(=O)N3CCN(CCO)CC3)sc21` was tested, and the Potency was inconclusive [inhibitor, partial curve, poor fit]. In the case of `CC(=O)Nc1ccc(NC(=O)COC(=O)C2(c3ccc(Cl)cc3)CCCC2)cc1`, the Potency was inconclusive [inhibitor, single point]. With `CCc1ccc(NCc2cc3cc(OC)c(OC)cc3n(CC(=O)Nc3ccc(F)cc3)c2=O)cc1` the Potency was inconclusive [activator, partial curve]. For `CC(NS(=O)(=O)c1ccc(Br)cc1)C(=O)NCCc1ccccc1` (configuration not stated), the Potency was inconclusive [inhibitor, single point]. In the case of `CC(C)(C)C1CCC(OC(=O)c2ccncc2)CC1` (configuration not stated), the Potency was inconclusive [inhibitor, single point].
